Results: paper PMC4336329 (PLoS ONE, 2015)
About 14,000 (4.5%) of roughly 310,000 compounds showed an effect of 50% or more. Effects have a minus sign here. This is one part of the list.

Target: human ether-à-go-go-related gene (hERG) potassium channel (human, UniProt Q12809)
Assay: primary screen, population patch clamp on CHO cells stably expressing hERG
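Further: peak tail current of the secondary pulse compared with the same well before compound.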

Chain of human ether-à-go-go-related gene (hERG) potassium channel (Q12809 whole entry, looked up): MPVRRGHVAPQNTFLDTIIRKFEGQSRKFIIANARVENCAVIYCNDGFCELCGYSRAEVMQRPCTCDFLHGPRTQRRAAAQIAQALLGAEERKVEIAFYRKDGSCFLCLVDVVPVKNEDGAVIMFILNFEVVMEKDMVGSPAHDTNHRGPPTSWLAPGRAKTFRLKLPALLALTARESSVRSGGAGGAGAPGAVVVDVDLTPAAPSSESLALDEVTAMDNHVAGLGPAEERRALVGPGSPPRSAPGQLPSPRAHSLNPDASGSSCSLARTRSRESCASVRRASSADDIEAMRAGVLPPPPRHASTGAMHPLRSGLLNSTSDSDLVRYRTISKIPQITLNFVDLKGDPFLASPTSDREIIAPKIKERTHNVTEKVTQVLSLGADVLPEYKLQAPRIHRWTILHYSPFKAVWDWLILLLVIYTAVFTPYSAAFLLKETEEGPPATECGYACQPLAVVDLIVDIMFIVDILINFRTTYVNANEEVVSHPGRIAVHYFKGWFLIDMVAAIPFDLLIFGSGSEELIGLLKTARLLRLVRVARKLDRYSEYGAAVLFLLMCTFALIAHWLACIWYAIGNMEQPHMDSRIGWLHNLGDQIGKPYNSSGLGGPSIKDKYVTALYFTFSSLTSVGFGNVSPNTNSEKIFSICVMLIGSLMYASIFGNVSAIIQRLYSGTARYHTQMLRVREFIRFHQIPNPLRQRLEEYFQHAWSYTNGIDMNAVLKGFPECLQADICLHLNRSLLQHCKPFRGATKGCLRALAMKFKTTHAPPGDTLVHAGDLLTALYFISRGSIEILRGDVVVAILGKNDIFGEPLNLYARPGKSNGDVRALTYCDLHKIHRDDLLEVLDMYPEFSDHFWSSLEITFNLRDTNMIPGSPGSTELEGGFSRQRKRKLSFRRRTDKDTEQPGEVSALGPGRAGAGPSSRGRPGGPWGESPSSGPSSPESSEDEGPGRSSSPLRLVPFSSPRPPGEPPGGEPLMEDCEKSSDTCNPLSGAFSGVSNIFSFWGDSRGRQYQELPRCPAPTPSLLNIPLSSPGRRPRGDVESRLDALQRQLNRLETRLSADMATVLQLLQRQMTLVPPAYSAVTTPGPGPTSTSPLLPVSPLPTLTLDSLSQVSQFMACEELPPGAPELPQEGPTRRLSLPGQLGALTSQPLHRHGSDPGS

Point of comparison: `Cc1ccn2c(=O)nc(SCC(=O)c3ccc(Cl)cc3)nc2c1`, “hERG current change (%, negative = inhibition) at 10uM” value -31.2%. Against it:
- CC(NC(=O)c1cc(F)c(F)cc1Cl)c1ccncc1 (stereo not shown) — higher, 1.1%
- CCc1ccc(N2Cc3ccccc3C2)cc1 — higher, 4.69%
- Cc1c(C(=O)N(C)C)sc(NC(=O)c2cccc([N+](=O)[O-])c2)c1C#N — higher, 15.4%
- C=CC[C@H]1CC(C)=C[C@H](CC=C)N1C(=O)c1cc(COc2ccccc2SC)on1 — higher, 7%
- O=C(CN1CC(c2ccccc2)CC1=O)Nc1ccc(F)cc1 (stereo not shown) — higher, -7.34%
- O=C(NN1CC(C(=O)OCc2ccccc2F)CC1=O)c1ccccc1 (stereo not shown) — lower, -56.8%
- CC(C)NS(=O)(=O)c1ccc(N2C(=O)c3ccccc3C2=O)cc1 — higher, -7.03%
- CC(C)CC(=O)NC(=S)Nc1nc(-c2ccc(Cl)cc2)cs1 — higher, -8.58%
- CC(=O)c1ccc(NC(=O)C2CCC(C)(C(=O)O)C2(C)C)cc1 (stereo not shown) — higher, -13.3%
- CCOc1ccccc1N1CCN(CC(=O)NC(=O)NCc2ccco2)CC1 — higher, 9.94%
- C=CCn1c(SCC(=O)NC2CC2)nnc1C1CC1 — higher, 20.7%
- COc1ccccc1NC(=O)c1c(Br)cnn1C — higher, 1.29%
- CC1CCN(Cc2c(C(=O)N/N=C/c3ccc(OC(C)C)cc3)nnn2-c2nonc2N)CC1 — higher, -4.52%
- COCCNC(=O)c1cccc(NS(=O)(=O)c2cccc3cccnc23)c1 — higher, -0.414%
- COC(=O)c1ccc(NC(=O)Cn2nc(-c3ccncc3)nc2SCC(=O)Nc2nccs2)cc1 — higher, -5.03%
- CCOc1ccccc1N(CC(=O)N1CCCCCC1)S(C)(=O)=O — higher, 11.8%
- CC(C)(C)OC(=O)N[C@@H](Cc1ccccc1)[C@H](O)c1ccco1 — higher, 9.63%
- CCCS(=O)(=O)Nc1cccc(-c2cn3c(n2)SCC3)c1 — higher, -14.1%
- COC(=O)C1=C(c2ccc(OC(F)(F)F)cc2)C[C@@H]2CC[C@H]1N2C(=O)NCCOc1ccc(OC)cc1 — higher, -26.3%
- O=C(NCC(=O)N(c1cccnc1)C(C(=O)NC1CCCC1)c1ccccc1)c1ccco1 (stereo not shown) — higher, 19.9%
- CCC(=O)c1cccc2c1N=CC1=C(CC(C)(C)CC1=O)N2 — higher, 2.57%
- Cc1cc(C)n(-c2cc(Cl)ccc2[N+](=O)[O-])n1 — higher, 4.19%
- COc1ccc2c3c(cccc13)OCC2=O — higher, -3.92%
- CCOC(=O)[C@H]1[C@H]2COc3ccccc3[C@@H]2N2C(=O)c3cc(C)ccc3NC(=O)[C@@]12C — higher, -23.2%
- CN(CC(=O)Nc1cccc(F)c1)C(=O)c1cc(-c2ccco2)nc2ccccc12 — higher, -27.1%
- CC(C)(C)c1nnc(NC(=O)CCS(=O)(=O)c2ccccc2)s1 — higher, 5.03%
- CC(C)(C)CC(=O)Nc1cccc2c1CCCC2 — higher, -7.97%
- C=C(C)Cn1c(CCCNC(=O)CC)nc2ccccc21 — higher, -6.64%
- O=C(/C=C/c1cccc([N+](=O)[O-])c1)NCc1ccc2c(c1)OCO2 — lower, -43.7%
- COc1cccc(NC(=O)CCc2nnc3ccc(NCc4ccco4)nn23)c1 — higher, 4.38%
- Cc1ccc(NC(=S)Nc2ccc(C(C)C)cc2)cc1S(=O)(=O)N1CCCCCC1 — higher, 11.2%
- COc1ccc2c(c1)CC/C(=C/c1ccncc1)C2=O — lower, -55.2%
- COc1cccc(NC(=O)CN(C)C(=O)c2cn(-c3ccccc3)nc2-c2cccs2)c1 — higher, -29.8%
- CC(=O)c1ccc(N2CCN(C(=O)C3CCC3)CC2)cc1 — higher, -26.4%
- COC(=O)c1sccc1NC(=O)c1ccc(Br)o1 — higher, -3.08%
- CCOC(=O)C1=C(O)/C(=C/c2cc(C)n(-c3ccccc3)c2C)N=C1C — higher, -22.8%
- O=C(OC1CCOC1=O)c1cccc(S(=O)(=O)N2CCc3ccccc3C2)c1 (stereo not shown) — higher, -18.5%
- O=C(NCc1ccc2c(c1)OCO2)c1sccc1Br — higher, 8.28%
- Cc1ccc2cc(CCNC(=O)C3CCCCC3)c(=O)[nH]c2c1C — higher, -7.04%
- Cc1ccc(-c2nnn(CC(=O)N(C)C3CCCCC3)n2)o1 — higher, 2.45%
- ClC(Br)=C(n1cnc2ccccc21)n1cnc2ccccc21 — higher, -22.5%
- COC(=O)c1[nH]c2cc(OC)ccc2c1NC(=O)CCN1CCCC(C)(C)C1 — lower, -39.4%
- CSC1=NC(C)(C)C=C(/C=C/c2ccc(Cl)cc2)N1 — higher, -15.7%
- CCOc1ccc(CC(=O)N/N=C/c2cccnc2)cc1OCC — higher, 14%
- N#Cc1c(SCC(=O)Nc2nncs2)sc2c(O)cc(=O)[nH]c12 — higher, 10.5%
- Cc1noc(C)c1C(=O)N(CC(=O)NC1CCCC1)Cc1ccccc1F — higher, -5.09%
- CCCCn1c(O)c(/C=C/C=Nc2ccccc2)c(=O)[nH]c1=O — higher, -15.4%
- Cc1nc2ccccc2c(=O)n1NC(=O)/C=C/c1ccccc1Cl — higher, 8.99%
- Nc1nc(SCc2ccc(Cl)cc2)ns1 — higher, -7%
- Cc1ccc(Oc2nc(-c3ccccc3)ncc2S(=O)(=O)c2ccc(C)cc2)cc1 — higher, 20.1%
- COc1ccc(CNC(=O)C2CCN(S(=O)(=O)c3cccc4cccnc34)CC2)cc1 — higher, -17.7%
- O=C(COC(=O)c1cccc(F)c1)Nc1cccnc1Cl — higher, 7.1%
- COc1cc(NC2c3ccccc3C(=O)N2Cc2ccc3c(c2)OCO3)cc(OC)c1 (stereo not shown) — higher, -22.4%
- Cc1ccccc1Cn1nc(C)c(NC(=O)c2cc(-c3ccco3)on2)c1C — higher, -8.59%
- O=C(NC1CC1)c1ccc(CSCc2ccccc2Cl)o1 — higher, -8.27%
- Cc1scc(C(=O)NNC(=S)NCC2CCCO2)c1-c1ccccc1 (stereo not shown) — higher, 12.1%
- CCn1c(CSCc2ccccc2)n[nH]c1=S — higher, 13.2%
- O=C(COc1cccc2c1CCN(Cc1ccccc1)C2=O)N1CCCCC1 — higher, -15%
- CN1C(=O)C(Cc2ccc(OCc3ccccc3)cc2)C(=O)N(C)C1=O — higher, 15.6%
- COc1nc(-c2ccccc2)ccc1-c1noc(-c2cccs2)n1 — higher, -5.4%
- COc1ccc([C@H]2/C=C\CN(C(=O)c3ccccc3)[C@@H](C)C(=O)N2Cc2ccc(F)cc2)cc1 — lower, -43.4%
- O=c1[nH]c(=S)[nH]c(O)c1N=Nc1ccc2c(c1)OCO2 — higher, 14.8%
- COc1cc(/C=N/O)cc(Br)c1OC — higher, 4.3%
- OCC1(Cc2ccccc2)CCN(Cc2cnn(-c3ccccc3F)c2)CC1 — lower, -41.9%
- COc1ccc(NC(=O)COC(=O)[C@@H]2CCCN2S(=O)(=O)c2ccccc2F)c(OC)c1 — higher, -18.2%
- COc1cc(CN2CCCCCC2)c([N+](=O)[O-])cc1OC — higher, 3.94%
- Cc1sc(-n2c(C)cc(C=O)c2C)c(C(=O)O)c1C — higher, 1.53%
- CCOC(=O)c1c(NC(C)=O)sc2c(O)cccc12 — higher, 2.36%
- CCN(CCO)Cc1csc2ccc(C(C)(C)C)cc12.Cl — lower, -48.9%
- COc1cc(/C=C2\C(=N)N3N=C(C)SC3=NC2=O)cc(Cl)c1OCCOc1ccc(NC(C)=O)cc1 — higher, 14.5%
- CCOc1ccc(C(=O)C(C)OC(=O)C2CCN(c3ccc(C(F)(F)F)cn3)CC2)cc1 (stereo not shown) — higher, -31%
- CCCn1c(N2CCN(C(=O)N3CCCCC3)CC2)nc2ccccc21.Cl — higher, -20.4%
- COc1cc(OC)cc(-c2c(C#Cc3ccsc3)c3cc(-c4ccc5[nH]ccc5c4)ccc3n2C)c1 — higher, 5.34%
- c1ccc(-c2nc(-c3ccc(-c4ccon4)s3)no2)cc1 — higher, 19.1%
- CCn1c(SCC(=O)NCc2ccc3c(c2)OCO3)nnc1-c1c[nH]c2ccccc12 — higher, -3.24%
- COc1cc(/C=C/c2nc3ccccc3c(=O)[nH]2)cc(Br)c1O — higher, 30.6%
- CCn1cc(C(=O)NCCCOC)c(=O)c2cc(S(=O)(=O)N3CCCC3)ccc21 — higher, -4.05%
- CC(=O)c1nc2ccccc2n1CCc1ccccc1 — higher, -7.1%
- CCN(CC)C(=O)CSc1nc2c(sc(=S)n2-c2ccccc2)c(=O)n1Cc1ccco1 — lower, -78.7%
- CC(C)c1ccc(CN(C(=O)c2cc3ccccc3oc2=O)C2CCS(=O)(=O)C2)cc1 (stereo not shown) — lower, -62%
- COCCN1C(=O)N[C@@H](c2cccc(C(F)(F)F)c2)[C@H](C(=O)OC)[C@H]1C — higher, -6.73%
- CCOC(=O)C1(C)NC(c2ccco2)C2C(=O)N(c3ccccc3)C(=O)C21 (stereo not shown) — higher, 10.4%
- CC1C/C(=N\Nc2ccc(S(N)(=O)=O)cc2[N+](=O)[O-])CC(C)(C)C1 (stereo not shown) — higher, 14.3%
- O=C(NCCCNc1ccc(C(F)(F)F)cc1[N+](=O)[O-])c1ccc(Cl)cc1 — higher, -12.3%
- O=C(COc1nc2ccccc2nc1N1CCOCC1)NC1CCCCC1 — higher, 3.98%
- Cc1ccc(CNC(=O)c2ccc(OCC(C)C)cc2)n1C — higher, 8.73%
- COc1cccc(C(=O)NN2c3ccccc3CCc3ccccc32)c1 — higher, 4.2%
